# Measurements: the RNAGym collection of RNA variant scans (doi:10.1093/nar/gkz1192)
# Read counts are not given, so values of variants with three or more changes are uncertain.
# B1: CPEB3 Ribozyme (parent)
# chain: UAACAGGGGGCCACAGCAGAAGCGUUCACGUCGCAGCCCCUGUCAGAUUCUGGUGAAUCUGCGAAUUCUGCUGUAUAUCUC
# Variants of: B1
# Assay: self-cleavage, relative activity (ratio to wild type); higher = more cleavage; in vitro, sequencing
# In short: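 CPEB3 self-cleaving ribozyme mutant libraries were made by rounds of error-prone PCR, barcoded, and transcribed in vitro with T7 RNA polymerase for 5 hours at 37°C. Cleavage occurred during transcription and a 15 min DNase I step before EDTA stop. RNAs were reverse transcribed with template switching and Illumina-sequenced, with DNA sequencing mapping barcodes to variants. Relative activity is the variant's cleaved/total read fraction divided by wild type's (minimum 5 reads), averaged across three batches.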
row,Variant,self-cleavage
1,UAACAGGGGGCCACAGCAGGAGCGUCCACGUCGCAGCCCCCGUCAGAUUCUGGUGAAUCUGCGAAUUCUGCUGUGUAUCUC [A20G U26C U41C A75G],0.45
2,UAACAGGGGGCCACAGCAGGAGCGUCCAUGUCGCAGCCCCUGUCAGAUUCUGGUGAAUCUGCGAAUUCUGCUGUAUAUCUC [A20G U26C C29U],0.46
3,UAACAGGGGGCCACAGCAGGAGCGUCCACGUGGCAGCCCCUGUCAGAUUCUGGUGAAUCUGCGAAUACUGCUGUAUAUCUC [A20G U26C C32G U67A],0.09
4,UAACAGGGGGCCACAGCAGGAGCGUUCACGCCGCAGCCCCUGUGAGAUCCUGGUGAAUCUGCGAAUUAUGCAGUAUAUCUC [A20G U31C C44G U49C C68A U72A],0.22
5,UAACAGGGGGCCACAGCAGGAGCGUUCACGCCGCAGCCCCCGUCAGAUUCUGGCGAAUCUGCGAAUUCUGCAGUAUAUCUC [A20G U31C U41C U54C U72A],0.17
6,UAACAGGGGGCCACAGCAGGAGCGUUCACGCUGCAGCCCCAGUCAGAUUCUGGCGAAUCUGCGAAUUCUGCUGUAUAUCUC [A20G U31C C32U U41A U54C],0.08
7,UAACAGGGGGCCACAGCAGGAGCGUACACGUCGCAGCCCCUGUCAGAUCCUGGUGGAUCUGCGAAUUCUGCUGUACAUCUC [A20G U26A U49C A56G U76C],0.82
8,UAACAGGGGGCCACAGCAGGAGCGUCCACGUCGCAGCCCCUGUCAGUUUCUGGUGAAUCUGCGAAUUCUGCUGUGUAUCUC [A20G U26C A47U A75G],0.39
9,UAACAGGGGGCCACAGCAGGAGCGUCCACGUCGCAGCCCCUGUAAGAUUCUGGUGAGUCUGCGAAUUCUGCUGUAUAUCUC [A20G U26C C44A A57G],0.07
10,UAACAGGGGGCCACAGCAGGAGCGUCCACGUCGCAGCCCCUGACAGAUUCUGGUGAAUCCGCGAAUUCUGCUGUAUAUCUC [A20G U26C U43A U60C],0.1
11,UAACAGGGGGCCACAGCAGGAGCGUUCACGUCGCAGCCCCAGUCAGGUUCUGGUGAAUCUGCGAAUUCUGCUGUAUAUCUC [A20G U41A A47G],0.09
12,UAACAGGGGGCCACAGCAGGAGCGUCCACGCCGCAGCCCCUGUCAGACUCUGGAGAAUCUGCGAAUUCUGCUGUAUAUCUC [A20G U26C U31C U48C U54A],0.08
13,UAACAGGGGGCCACAGCAGGAGCGUUCACGCCGCAGCCCCUGUCAGAUUCUGGUGAGUCUGCGAAUACUGCUGUAUAUAUC [A20G U31C A57G U67A C79A],0.3
14,UAACAGGGGGCCACAGCAGGAGCGUACACGUAGCAGCCCCUGUCAGAUUCAGGUGAAUCUGCGAAUUCUGCUGUAUAUCUC [A20G U26A C32A U51A],0.19
15,UAACAGGGGGCCACAGCAGGAGCGUCCACGUCGCAGCCCUUGUCAGAUUCUGGUGAAUCUGCGAAUUCUGCUGUAUAUCUC [A20G U26C C40U],0.36
16,UAACAGGGGGCCACAGCAGGAGCGUACACGUCACAGCCCCUGUCAGGUUCCGGUGAAUCUGCGAAUUCUGCUGUAUAUCUC [A20G U26A G33A A47G U51C],0.08
17,UAACAGGGGGCCACAGCAGGAGCGUCCACGUCGCAGCCCCUGUCAGAUUCUGGUGAAUCUGUGAACUCUGCAGUAUAGCUC [A20G U26C C62U U66C U72A U78G],0.07

row,Variant,self-cleavage
1,UAACAGGGGGCCACAGCAGGAGCGUUCACGCCGCAGCCACUGUCGGAUUCUGGUGAAUCUGCGAAUUCUGCUGUAUAUCUC [A20G U31C C39A A45G],0.09
2,UAACAGGGGGCCACAGCAGGAGCGUACACGUCGCAGCCCCUGUCGGACUCAGGUGAAUCUGCGAGUUCUGCCGUAUAUCUC [A20G U26A A45G U48C U51A A65G U72C],0.06
3,UAACAGGGGGCCACAGCAGGAGCGUCCACGUCGCAGCCCCUGUCAGAUUCGGGUGAAUCUGCGAAUUCUGCUGUAUAUCUC [A20G U26C U51G],0.17
4,UAACAGGGGGCCACAGCAGGAGCGUACACGUCGCAGCCCCUGUCAGAUUCUGGUGAAUCUGCGAAUUCUGCUGUGUAUCUC [A20G U26A A75G],0.64
5,UAACAGGGGGCCACAGCAGGAGCGUUCACGUCGCAGCCCCAGUCAGAUUCUGGUGAAUCUGCCAAUUCCGCUGUAUAUCUC [A20G U41A G63C U69C],0.11
6,UAACAGGGGGCCACAGCAGGAGCGUCCACGUCCCAGCCCCUGUCAGAUUCCGGUGAAGCUGCGAAUUCUGCCGUAUAUCUC [A20G U26C G33C U51C U58G U72C],0.12
7,UAACAGGGGGCCACAGCAGGAGCGUGCACGUCGCAGCCCCUGUCAGAUUCCGGUGAAUCUGAGAAUUCUGCUGUAUAUCUC [A20G U26G U51C C62A],0.22
8,UAACAGGGGGCCACAGCAGGAGCGUGCACGUCGCAGCCCCUGUCAGAUCCUGGUGAAUCUGCGGAUUCAGCUGUAUAUCUC [A20G U26G U49C A64G U69A],0.14
9,UAACAGGGGGCCACAGCAGGAGCGUUCACGACGCAGCCCCUGUCAGAUUCUGGUGAACCUGCGAAUUCUGCUGUACAUCUC [A20G U31A U58C U76C],0.1
10,UAACAGGGGGCCACAGCAGGAGCGUCCACGUCGCAGCCCCUGUCAGAUUCUGGUGAAUCUCCGAAUUCUGCUGUAUAUCAC [A20G U26C G61C U80A],0.07
11,UAACAGGGGGCCACAGCAGGAGCGUACACGUUGCAGCCCCUGUCAGACUCUGGUGAAUCUGCGAGUUCUGCUGUAUAUCCC [A20G U26A C32U U48C A65G U80C],0.14
12,UAACAGGGGGCCACAGCAGGAGCGUACACGUCGCAGCCCCUGUCAGGUUCUGGUGAAUCUGCGAAUUCUGCUGUAUAUCUC [A20G U26A A47G],0.42
13,UAACAGGGGGCCACAGCAGGAGCGUACACGUCGCAGCCCCUGUCAGAUCCUGGUGGAUCUGCGAAUUCUGCUGUAUAUCUC [A20G U26A U49C A56G],0.53
14,UAACAGGGGGCCACAGCAGGAGCGGCCACGUCGCAGCCCCUGUCAGAUUCCGGUGAAUCUGCGAAUUCGGCUGUAUAUCUU [A20G U25G U26C U51C U69G C81U],0.06
15,UAACAGGGGGCCACAGCAGGAGCGUUCACGUCGCAGCCCCAGUCAGACUCUGGUGAAUCUGCGAGUUCUGCUGUAUAUCUC [A20G U41A U48C A65G],0.17
16,UAACAGGGGGCCACAGCAGGAGCGCUCACGUCGCAGCCCCUGUCAGAUUCUGGUGAAUCUGCGAAUUCUGCUGUAUAACUC [A20G U25C U78A],0.21
17,UAACAGGGGGCCACAGCAGGAGCGCUCACGUCGCAGCCCCUGUCAGAUUCUGGUGAAUCUGCGAAUUCUGCUGUAUACCUC [A20G U25C U78C],0.09
